Measurements taken from publication PMC2800207 (Nucleic Acids Research, 2009).

B1: NusB^D118A (natural protein)
chain: not shown
B2: NusB^D118K (natural protein)
chain: not shown

Target: NusE (GST cleaved off) (E. coli)
Test: fluorescence polarisation

Binder	binding result
B1	binds
B2	binds
